From patent US5760092A, “Allocolchinones and uses thereof” (Brandeis University, priority 1996, dated 1998)

Assays:
[1] = system: CCRF-CEM leukemia cells
[2] = system: K-562 leukemia cells
[3] = system: EKVX non-small cell lung cancer cells
[4] = system: NCI-H23 non-small cell lung cancer cells
[5] = system: HCT-15 colon cancer cells
[6] = system: SK-MEL-28 melanoma cells
[7] = system: SK-MEL-5 melanoma cells
[8] = system: OVCAR-4 ovarian cancer cells
[9] = system: K-562 leukemia cells; assay: cells; conditions: Homo sapiens
[10] = system: 786-0 renal cancer cells
[11] = system: TK-10 renal cancer cells
[12] = system: EKVX non-small cell lung cancer cells; assay: cells; conditions: Homo sapiens
[13] = system: NCI-H226 non-small cell lung cancer cells; assay: cells; conditions: Homo sapiens
[14] = system: NCI-H522 non-small cell lung cancer cells; assay: cells; conditions: Homo sapiens
[15] = system: HCC-2998 colon cancer cells; assay: cells; conditions: Homo sapiens
[16] = system: SW-620 colon cancer cells; assay: cells; conditions: Homo sapiens
[17] = system: MALME-3M melanoma cells; assay: cells; conditions: Homo sapiens
[18] = system: SK-MEL-2 melanoma cells; assay: cells; conditions: Homo sapiens
[19] = system: SK-MEL-5 melanoma cells; assay: cells; conditions: Homo sapiens
[20] = system: IGR-OV1 ovarian cancer cells; assay: cells; conditions: Homo sapiens
[21] = system: OVCAR-4 ovarian cancer cells; assay: cells; conditions: Homo sapiens
[22] = system: OVCAR-5 ovarian cancer cells; assay: cells; conditions: Homo sapiens
[23] = system: ACHN renal cancer cells; assay: cells; conditions: Homo sapiens
[24] = system: SN12C renal cancer cells; assay: cells; conditions: Homo sapiens
[25] = system: TK-10 renal cancer cells; assay: cells; conditions: Homo sapiens
[26] = system: UO-31 renal cancer cells; assay: cells; conditions: Homo sapiens
[27] = system: PC-3 prostate cancer cells; assay: cells
[28] = system: DU-145 prostate cancer cells; assay: cells; conditions: Homo sapiens
[29] = system: MCF7 breast cancer cells; assay: cells; conditions: Homo sapiens
[30] = system: MDA-MB-435 breast cancer cells; assay: cells; conditions: Homo sapiens
[31] = system: MDA-N breast cancer cells; assay: cells; conditions: Homo sapiens
[32] = system: BT-549 breast cancer cells; assay: cells; conditions: Homo sapiens
[33] = read-out: Percent Growth, log10 conc -4.0
[34] = read-out: Percent Growth, log10 conc -5.0
[35] = read-out: Percent Growth, log10 conc -6.0
[36] = read-out: Percent Growth, log10 conc -7.0
[37] = read-out: Percent Growth, log10 conc -8.0

Structure (SMILES): COc1cc2c(c(OC)c1OC)-c1ccc(OC)c(=O)cc1[C@@H](NC(C)=O)CC2 [Colchicine, reference compound]
- TGI [1]: > 100000 nM
- TGI [2]: > 100000 nM
- TGI [3]: > 100000 nM
- TGI [4]: > 100000 nM
- TGI [5]: 1350 nM
- TGI [6]: > 100000 nM
- TGI [7]: 88600 nM
- TGI [8]: > 100000 nM
- GI50 ([9]; K562): 16.2 nM
- activity at 100 µM ([9]; K562, read-out: Percent Growth, log10 conc -4.0): 6%
- activity at 10 µM ([9]; K562, read-out: Percent Growth, log10 conc -5.0): 11%
- activity at 1 µM ([9]; K562, read-out: Percent Growth, log10 conc -6.0): 14%
- activity at 0.1 µM ([9]; K562, read-out: Percent Growth, log10 conc -7.0): 16%
- activity at 0.01 µM ([9]; K562, read-out: Percent Growth, log10 conc -8.0): 59%
- TGI [10]: > 100000 nM
- TGI [11]: > 100000 nM
- GI50 [12]: > 100000 nM
- activity at 100 µM [12, 33]: 75%
- activity at 10 µM [12, 34]: 66%
- activity at 1 µM [12, 35]: 74%
- activity at 0.1 µM [12, 36]: 79%
- GI50 ([13]; NCI-H226): 27.5 nM
- activity at 100 µM ([13]; NCI-H226, read-out: Percent Growth, log10 conc -4.0): -34%
- activity at 10 µM ([13]; NCI-H226, read-out: Percent Growth, log10 conc -5.0): 7%
- activity at 1 µM ([13]; NCI-H226, read-out: Percent Growth, log10 conc -6.0): -7%
- activity at 0.1 µM ([13]; NCI-H226, read-out: Percent Growth, log10 conc -7.0): -3%
- activity at 0.01 µM ([13]; NCI-H226, read-out: Percent Growth, log10 conc -8.0): 91%
- GI50 ([14]; NCI-H522): 14.5 nM
- activity at 10 µM ([14]; NCI-H522, read-out: Percent Growth, log10 conc -5.0): -8%
- activity at 1 µM ([14]; NCI-H522, read-out: Percent Growth, log10 conc -6.0): -5%
- activity at 0.1 µM ([14]; NCI-H522, read-out: Percent Growth, log10 conc -7.0): -25%
- activity at 0.01 µM ([14]; NCI-H522, read-out: Percent Growth, log10 conc -8.0): 64%
- GI50 ([15]; HCC 2998): 30.7 nM
- activity at 100 µM ([15]; HCC 2998, read-out: Percent Growth, log10 conc -4.0): -14%
- activity at 10 µM ([15]; HCC 2998, read-out: Percent Growth, log10 conc -5.0): 8%
- activity at 1 µM ([15]; HCC 2998, read-out: Percent Growth, log10 conc -6.0): 11%
- activity at 0.1 µM ([15]; HCC 2998, read-out: Percent Growth, log10 conc -7.0): 3%
- activity at 0.01 µM ([15]; HCC 2998, read-out: Percent Growth, log10 conc -8.0): 95%
- GI50 ([16]; SW-620): 21.7 nM
- activity at 100 µM ([16]; SW-620, read-out: Percent Growth, log10 conc -4.0): -31%
- activity at 10 µM ([16]; SW-620, read-out: Percent Growth, log10 conc -5.0): 17%
- activity at 1 µM ([16]; SW-620, read-out: Percent Growth, log10 conc -6.0): 11%
- activity at 0.1 µM ([16]; SW-620, read-out: Percent Growth, log10 conc -7.0): 15%
- activity at 0.01 µM ([16]; SW-620, read-out: Percent Growth, log10 conc -8.0): 68%
- GI50 [17]: 18.6 nM
- activity at 100 µM [17, 33]: -30%
- activity at 10 µM [17, 34]: 42%
- activity at 1 µM [17, 35]: 44%
- activity at 0.1 µM [17, 36]: 38%
- activity at 0.01 µM [17, 37]: 54%
- GI50 ([18]; SK-MEL-2): < 10 nM
- activity at 100 µM ([18]; SK-MEL-2, read-out: Percent Growth, log10 conc -4.0): -32%
- activity at 10 µM ([18]; SK-MEL-2, read-out: Percent Growth, log10 conc -5.0): -16%
- activity at 1 µM ([18]; SK-MEL-2, read-out: Percent Growth, log10 conc -6.0): -10%
- activity at 0.1 µM ([18]; SK-MEL-2, read-out: Percent Growth, log10 conc -7.0): -25%
- activity at 0.01 µM ([18]; SK-MEL-2, read-out: Percent Growth, log10 conc -8.0): -13%
- GI50 ([19]; SK-MEL-5): < 10 nM
- activity at 100 µM ([19]; SK-MEL-5, read-out: Percent Growth, log10 conc -4.0): 0%
- activity at 10 µM ([19]; SK-MEL-5, read-out: Percent Growth, log10 conc -5.0): 8%
- activity at 1 µM ([19]; SK-MEL-5, read-out: Percent Growth, log10 conc -6.0): 9%
- activity at 0.1 µM ([19]; SK-MEL-5, read-out: Percent Growth, log10 conc -7.0): 9%
- activity at 0.01 µM ([19]; SK-MEL-5, read-out: Percent Growth, log10 conc -8.0): 47%
- GI50 ([20]; IGROV-1): 52.5 nM
- activity at 100 µM ([20]; IGROV-1, read-out: Percent Growth, log10 conc -4.0): 26%
- activity at 10 µM ([20]; IGROV-1, read-out: Percent Growth, log10 conc -5.0): 22%
- activity at 1 µM ([20]; IGROV-1, read-out: Percent Growth, log10 conc -6.0): 23%
- activity at 0.1 µM ([20]; IGROV-1, read-out: Percent Growth, log10 conc -7.0): 30%
- GI50 ([21]; OVCAR-4): 93400 nM
- activity at 100 µM ([21]; OVCAR-4, read-out: Percent Growth, log10 conc -4.0): 50%
- activity at 10 µM ([21]; OVCAR-4, read-out: Percent Growth, log10 conc -5.0): 54%
- activity at 1 µM ([21]; OVCAR-4, read-out: Percent Growth, log10 conc -6.0): 59%
- activity at 0.1 µM ([21]; OVCAR-4, read-out: Percent Growth, log10 conc -7.0): 63%
- activity at 0.01 µM ([21]; OVCAR-4, read-out: Percent Growth, log10 conc -8.0): 94%
- GI50 ([22]; OVCAR-5): 76.3 nM
- activity at 100 µM ([22]; OVCAR-5, read-out: Percent Growth, log10 conc -4.0): -47%
- activity at 10 µM ([22]; OVCAR-5, read-out: Percent Growth, log10 conc -5.0): 43%
- activity at 1 µM ([22]; OVCAR-5, read-out: Percent Growth, log10 conc -6.0): 44%
- activity at 0.1 µM ([22]; OVCAR-5, read-out: Percent Growth, log10 conc -7.0): 45%
- activity at 0.01 µM ([22]; OVCAR-5, read-out: Percent Growth, log10 conc -8.0): 86%
- GI50 [23]: 369 nM
- activity at 100 µM [23, 33]: 24%
- activity at 10 µM [23, 34]: 41%
- activity at 1 µM [23, 35]: 44%
- activity at 0.1 µM [23, 36]: 58%
- GI50 [24]: 53.4 nM
- activity at 100 µM [24, 33]: -7%
- activity at 10 µM [24, 34]: 27%
- activity at 1 µM [24, 35]: 30%
- activity at 0.1 µM [24, 36]: 34%
- activity at 0.01 µM [24, 37]: 93%
- GI50 ([25]; TK-10): > 100000 nM
- activity at 100 µM ([25]; TK-10, read-out: Percent Growth, log10 conc -4.0): 71%
- activity at 10 µM ([25]; TK-10, read-out: Percent Growth, log10 conc -5.0): 80%
- activity at 1 µM ([25]; TK-10, read-out: Percent Growth, log10 conc -6.0): 76%
- activity at 0.1 µM ([25]; TK-10, read-out: Percent Growth, log10 conc -7.0): 73%
- GI50 ([26]; UO-31): 515 nM
- activity at 100 µM ([26]; UO-31, read-out: Percent Growth, log10 conc -4.0): 12%
- activity at 10 µM ([26]; UO-31, read-out: Percent Growth, log10 conc -5.0): 29%
- activity at 1 µM ([26]; UO-31, read-out: Percent Growth, log10 conc -6.0): 32%
- activity at 0.1 µM ([26]; UO-31, read-out: Percent Growth, log10 conc -7.0): 95%
- activity at 0.01 µM ([26]; UO-31, read-out: Percent Growth, log10 conc -8.0): 94%
- GI50 [27]: 23.8 nM
- activity at 100 µM [27, 33]: 6%
- activity at 10 µM [27, 34]: 8%
- activity at 1 µM [27, 35]: 5%
- activity at 0.1 µM [27, 36]: 16%
- activity at 0.01 µM [27, 37]: 71%
- GI50 ([28]; DU-145): 8370 nM
- activity at 100 µM ([28]; DU-145, read-out: Percent Growth, log10 conc -4.0): 19%
- activity at 10 µM ([28]; DU-145, read-out: Percent Growth, log10 conc -5.0): 49%
- activity at 1 µM ([28]; DU-145, read-out: Percent Growth, log10 conc -6.0): 63%
- activity at 0.1 µM ([28]; DU-145, read-out: Percent Growth, log10 conc -7.0): 64%
- activity at 0.01 µM ([28]; DU-145, read-out: Percent Growth, log10 conc -8.0): 96%
- GI50 ([29]; MCF7): 13 nM
- activity at 100 µM ([29]; MCF7, read-out: Percent Growth, log10 conc -4.0): 8%
- activity at 10 µM ([29]; MCF7, read-out: Percent Growth, log10 conc -5.0): 17%
- activity at 1 µM ([29]; MCF7, read-out: Percent Growth, log10 conc -6.0): 18%
- activity at 0.1 µM ([29]; MCF7, read-out: Percent Growth, log10 conc -7.0): 19%
- activity at 0.01 µM ([29]; MCF7, read-out: Percent Growth, log10 conc -8.0): 54%
- GI50 ([30]; MDA-MB-435): < 10 nM
- activity at 100 µM ([30]; MDA-MB-435, read-out: Percent Growth, log10 conc -4.0): -34%
- activity at 10 µM ([30]; MDA-MB-435, read-out: Percent Growth, log10 conc -5.0): -28%
- activity at 1 µM ([30]; MDA-MB-435, read-out: Percent Growth, log10 conc -6.0): -22%
- activity at 0.1 µM ([30]; MDA-MB-435, read-out: Percent Growth, log10 conc -7.0): -31%
- activity at 0.01 µM ([30]; MDA-MB-435, read-out: Percent Growth, log10 conc -8.0): 31%
- GI50 [31]: < 10 nM
- activity at 100 µM [31, 33]: -9%
- activity at 10 µM [31, 34]: 27%
- activity at 1 µM [31, 35]: 25%
- activity at 0.1 µM [31, 36]: 26%
- activity at 0.01 µM [31, 37]: 38%
- GI50 ([32]; BT-549): 42.5 nM
- activity at 100 µM ([32]; BT-549, read-out: Percent Growth, log10 conc -4.0): -21%
- activity at 10 µM ([32]; BT-549, read-out: Percent Growth, log10 conc -5.0): 48%
- activity at 1 µM ([32]; BT-549, read-out: Percent Growth, log10 conc -6.0): 42%
- activity at 0.1 µM ([32]; BT-549, read-out: Percent Growth, log10 conc -7.0): 39%
- activity at 0.01 µM ([32]; BT-549, read-out: Percent Growth, log10 conc -8.0): 69%
